The whole screen tested about 350,000 compounds, of which about 260 (0.074%) were called active. This list was built around the results that the source calls inconclusive (neither active nor inactive); the mix of calls is not that of the screen. Calls come from the whole dose curve; as a rule, active = well fitted inhibition curve with a large enough effect; inconclusive = small, poorly fitted or top-dose-only effect; inactive = no such curve, though single readings can be large or run the other way. Potencies of inconclusive entries are doubtful fits and often do not repeat.
Each compound was assayed against Ferritin light chain (Equus caballus) (UniProt P02791) (assay: qHTS Assay for Identification of Novel General Anesthetics). Conditions: apoferritin/1-aminoanthracene competitive binding, fluorescence; series mostly up to 77.5 µM.
UniProt P02791, sequence (P02791 whole entry, looked up): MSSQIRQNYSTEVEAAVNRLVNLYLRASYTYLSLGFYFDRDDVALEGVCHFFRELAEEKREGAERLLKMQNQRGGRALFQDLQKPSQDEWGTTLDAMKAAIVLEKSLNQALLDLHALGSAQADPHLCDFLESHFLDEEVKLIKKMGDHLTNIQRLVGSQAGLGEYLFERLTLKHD
In short: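 10 uM apoferritin + 50% sat. 1-AMA, PBS; cpd 10 min RT; Ex380/Em535 endpoint; normalized to free probe vs complex; 4-param Hill fit; propofol titration as pos. ctrl.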
Note: nearly all actives have a fitted effect of over 20% in size.
Potency is the fitted concentration of half-maximal effect; tags give direction and shape of the fitted curve.

Q: With CCOC(=O)C1=C(c2ccccc2)NC(N)=NC1c1ccc(OCc2ccc(Cl)cc2)c(OC)c1 (centres undefined) as the compound, how does the Potency read?
A: inconclusive: 35.5 µM [inhibitor, single point]

Q: How did the Potency turn out when Cc1ccccc1OCc1nc2ccc(S(=O)(=O)N3CCOCC3)cc2[nH]1 was run?
A: inconclusive: 35.5 µM [inhibitor, single point]

Q: For Nc1cc(=O)nc(SCC(=O)Nc2cccc3ccccc23)n1CCc1ccccc1, which Potency is on record?
A: inconclusive: 20 µM [inhibitor, partial curve]

Q: How did the Potency turn out when COc1ccc(-n2c(=S)[nH]c3cc(C(=O)Nc4ccc(C)c(F)c4)ccc3c2=O)c(OC)c1 was run?
A: inconclusive: 35.5 µM [inhibitor, single point]

Q: With CCn1c(=O)c(=O)[nH]c2cc(C(=O)Nc3ccc(S(=O)(=O)N4CCCC4)cc3)ccc21 as the compound, how does the Potency read?
A: inconclusive: 31.6 µM [inhibitor, single point]

Q: Which Potency does the source give for O=C(CNC(=O)c1ccccc1Br)N/N=C/c1cccnc1 here?
A: inconclusive: 39.8 µM [inhibitor, single point]

Q: How did the Potency turn out when COc1cc(C(=O)n2nc(C)c(Sc3ccc(Cl)cc3)c2C)cc(OC)c1OC was run?
A: inconclusive: 3.55 µM [inhibitor, full curve]

Q: With O=C1C2C3CCCC3=C3CCCC3C2C(=O)N1c1ccc(Cl)cc1 (centres undefined) as the compound, how does the Potency read?
A: inconclusive: 22.4 µM [inhibitor, partial curve]

Q: How did the Potency turn out when CCOC(=O)Cc1csc(N/C(=N/S(=O)(=O)c2ccc(Cl)cc2)c2ccccc2)n1 was run?
A: inconclusive: 35.5 µM [inhibitor, partial curve]

Q: For COc1ccc(C(C)C(=O)c2ccc(O)cc2O)cc1 (centres undefined), which Potency is on record?
A: inconclusive: 28.2 µM [inhibitor, single point]

Q: Which Potency does the source give for O=C(c1ccc2oc(Cc3ccc(Cl)cc3)nc2c1)N1CCCCC1CCO (centres undefined) here?
A: inconclusive: 17.8 µM [inhibitor, partial curve]

Q: Which Potency does the source give for COc1cccc(-n2cnc3sc4c(c3c2=O)CCC4)c1 here?
A: inconclusive: 7.08 µM [inhibitor, full curve]

Q: CCOC(=O)c1c(-c2ccccc2)csc1NC(=S)NC was tested. Which Potency did it give?
A: inactive

Q: With CCOc1ccc(C(=O)c2oc3ccccc3c2NC(=O)Cc2coc3ccc(CC)cc23)cc1 as the compound, how does the Potency read?
A: inactive

Q: Which Potency does the source give for Brc1cccc(Cn2c(-c3cncs3)nc3ccccc32)c1 here?
A: inactive

Q: For CCOC(=O)Cc1nnc2c(Nc3ccc(Cl)cc3)nc3nonc3n12, which Potency is on record?
A: inconclusive: 39.8 µM [inhibitor, partial curve]

Q: How did the Potency turn out when CN(C)CCNC(=O)c1cc2c(=O)n(C)c3ccccc3c2n1C was run?
A: inactive

Q: For Cc1ccc2c(c1)C1CN(C)CCC1N2Sc1ccccc1[N+](=O)[O-] (centres undefined), which Potency is on record?
A: inconclusive: 15.8 µM [inhibitor, partial curve]

Q: How did the Potency turn out when CCc1ccccc1OCC(=O)Nc1ccc(S(=O)(=O)Nc2nc(C)cc(C)n2)cc1 was run?
A: inactive

Q: With COc1ccccc1NC(=O)CSc1nc(-c2ccc(C(C)(C)C)cc2)c(C#N)c(=O)[nH]1 as the compound, how does the Potency read?
A: inconclusive: 35.5 µM [inhibitor, single point]

Q: CNc1ncc(C(=O)c2ccc(Cl)c(Cl)c2)s1 was tested. Which Potency did it give?
A: inconclusive: 22.4 µM [inhibitor, partial curve]

Q: For Cc1sc2ncn(CC(=O)Nc3cccc(S(N)(=O)=O)c3)c(=O)c2c1-c1ccccc1, which Potency is on record?
A: inconclusive: 39.8 µM [inhibitor, single point]

Q: How did the Potency turn out when C/C=C/C(=O)OCC(=O)Nc1ccc(F)cc1Cl was run?
A: inconclusive: 39.8 µM [inhibitor, partial curve]

Q: Which Potency does the source give for CCOC(=O)c1c(NC(=O)c2cc(-c3cccc(OC)c3)on2)sc2c1CCCC2 here?
A: inactive

Q: Nc1nc(-c2ccc3c(c2)OCCO3)cs1 was tested. Which Potency did it give?
A: inconclusive: 35.5 µM [inhibitor, partial curve]

Q: COc1ccc(NC(=O)c2cccc(N3C(=O)C4CCC(C)CC4C3=O)c2)c(OC)c1 (centres undefined) was tested. Which Potency did it give?
A: inconclusive: 50.1 µM [inhibitor, single point]

Q: CCCn1c(CN2CCN(c3cccc(Cl)c3)CC2)nc2c1c(=O)n(C)c(=O)n2C was tested. Which Potency did it give?
A: inactive

Q: With CCNC(=O)COC(=O)c1cc(-c2ccco2)nc2ccccc12 as the compound, how does the Potency read?
A: inactive

Q: For CC(C)c1ccc(NC(=O)CN2C(=O)COc3ccc(S(=O)(=O)N4CCCCCC4)cc32)cc1, which Potency is on record?
A: inactive

Q: How did the Potency turn out when Cc1cc(C)n2cc(CSc3nnc(-c4ccccc4)o3)nc2n1 was run?
A: inactive

Q: Which Potency does the source give for CCCC(=O)NC(c1ccccc1)c1c(O)ccc2ccccc12 (centres undefined) here?
A: inactive

Q: Which Potency does the source give for Cc1oc(-c2ccccc2Cl)nc1CSc1nc2ncccc2[nH]1 here?
A: inconclusive: 44.7 µM [inhibitor, single point]

Q: With COc1ccc(NC(=S)NC(=O)Cc2ccccc2)c(OC)c1 as the compound, how does the Potency read?
A: inconclusive: 28.2 µM [inhibitor, partial curve]

Q: Which Potency does the source give for CCN(CC)C(=O)c1ccc(Nc2nnc(-c3ccc(C)c(S(=O)(=O)NC)c3)c3ccccc23)cc1 here?
A: inactive

Q: Which Potency does the source give for c1ccc(COc2ccc(OCCCN3CCCCC3)cc2)cc1 here?
A: inconclusive: 28.2 µM [inhibitor, partial curve]

Q: How did the Potency turn out when COc1ccc(CN2C(=O)C(O)(CC(=O)c3ccc4c(c3)OCO4)c3ccccc32)cc1OC (centres undefined) was run?
A: inconclusive: 22.4 µM [inhibitor, partial curve]

Q: Cc1cc2ccccn2c1C(=O)c1cccc([N+](=O)[O-])c1 was tested. Which Potency did it give?
A: inconclusive: 28.2 µM [inhibitor, partial curve]

Q: With c1ccc2c(CSc3nnc(-c4ccncc4)o3)cccc2c1 as the compound, how does the Potency read?
A: inconclusive: 25.1 µM [inhibitor, partial curve]

Q: Cc1ccc(NC(=O)Nc2ccc3c(c2)N(C)C(=O)c2ccccc2S3)c(C)c1 was tested. Which Potency did it give?
A: inconclusive: 20 µM [inhibitor, partial curve]

Q: How did the Potency turn out when COC(=O)C(C)(C)ONC(=O)Nc1ccccc1[N+](=O)[O-] was run?
A: inconclusive: 22.4 µM [inhibitor, partial curve]

Q: How did the Potency turn out when Cc1sc2ncnc(N(C)Cc3ccco3)c2c1C was run?
A: inactive

Q: How did the Potency turn out when COc1cc(OC)c(OC)cc1/C=C1\CCC/C(=C\c2cc(OC)c(OC)cc2OC)C1=O was run?
A: inconclusive: 28.2 µM [inhibitor, partial curve]

Q: Which Potency does the source give for CS(=O)(=O)N(CC(=O)N1CCCC1)Cc1ccccc1 here?
A: inconclusive: 39.8 µM [inhibitor, single point]

Q: For Cc1cc(C)c(S(=O)(=O)Nc2ccc3c(c2)CCC3)c(C)c1, which Potency is on record?
A: inconclusive: 4.47 µM [inhibitor, full curve]

Q: For O=C(c1cc(COc2ccc(F)cc2Cl)on1)N1CCN(C2CCCCC2)C(=O)C1, which Potency is on record?
A: inactive

Q: With Cc1nc2c(C(=O)NCc3ccccc3)c[nH]n2c(=O)c1Cc1ccccc1Cl as the compound, how does the Potency read?
A: inconclusive: 4.47 µM [inhibitor, full curve, poor fit]

Q: Cc1ccsc1C(=O)C1CCCN(Cc2cccn2-c2ccc(Cl)cn2)C1 (centres undefined) was tested. Which Potency did it give?
A: inconclusive: 20 µM [inhibitor, partial curve]

Q: For Cn1nc(C(F)(F)F)c2cc(C(=O)O)sc21, which Potency is on record?
A: inactive

Q: Cc1ccc2c(c1)N(C(=O)CCC(=O)Nc1ccccc1Br)CC(C)O2 (centres undefined) was tested. Which Potency did it give?
A: inconclusive: 22.4 µM [inhibitor, partial curve]

Q: With CC1(C)CC(=O)N(c2ccc(Cl)c(Cl)c2)C(=O)C1 as the compound, how does the Potency read?
A: inconclusive: 15.8 µM [inhibitor, partial curve]

Q: For CCCCSc1nc2ccccc2[nH]1, which Potency is on record?
A: inconclusive: 17.8 µM [inhibitor, partial curve]

Q: Which Potency does the source give for C/C(=N\NC(=O)CNc1ccc(F)cc1)c1cc2ccccc2o1 here?
A: inconclusive: 28.2 µM [inhibitor, partial curve]

Q: Which Potency does the source give for Cc1noc(C)c1COC(=O)CCOc1ccccc1 here?
A: inconclusive: 35.5 µM [inhibitor, single point]

Q: CCOC(=O)CNC1CC(=O)N(c2ccc(Br)cc2)C1=O (centres undefined) was tested. Which Potency did it give?
A: inactive

Q: How did the Potency turn out when CC1(C(=O)OCC(=O)Nc2ccccc2Cl)CC1(Cl)Cl (centres undefined) was run?
A: inconclusive: 12.6 µM [inhibitor, partial curve]

Q: CC1CCCCN1C(=O)CSCC(=O)Nc1nc(-c2cccs2)cs1 (centres undefined) was tested. Which Potency did it give?
A: inconclusive: 39.8 µM [inhibitor, single point]

Q: With CC1(C)Cc2c(cnn2-c2ccccc2)C(=O)/C1=N\NC(=O)c1ccccc1N as the compound, how does the Potency read?
A: inactive

Q: For CCn1c(C)c(C(=O)O)c2cc(OC)c3ccccc3c21, which Potency is on record?
A: inactive

Q: O=S1(=O)CCC(N=Cc2ccc(-c3ccc(Cl)cc3)o2)C1 (centres undefined) was tested. Which Potency did it give?
A: inconclusive: 22.4 µM [inhibitor, partial curve]

Q: Which Potency does the source give for O=C(CCC(=O)Nc1ccc(F)cc1)N/N=C/c1cccs1 here?
A: inconclusive: 28.2 µM [inhibitor, partial curve]

Q: Which Potency does the source give for Cc1ccc2oc(C(=O)NCCC3CCCCO3)c(C)c2c1 (centres undefined) here?
A: inconclusive: 25.1 µM [inhibitor, partial curve]

Q: CCOc1ccc(-c2nc(SCC(=O)Nc3ccc4c(c3)OCO4)c(-c3ccc(F)cc3)[nH]2)cc1 was tested. Which Potency did it give?
A: inactive

Q: COc1ccc2c(c1)C(c1ccccc1C)CC(=O)O2 (centres undefined) was tested. Which Potency did it give?
A: inconclusive: 39.8 µM [inhibitor, partial curve]

Q: Which Potency does the source give for Cc1nc(NC(=O)COC(=O)CCS(=O)(=O)c2ccccc2Cl)c(Cl)cc1Cl here?
A: inconclusive: 25.1 µM [inhibitor, partial curve]

Q: With CCc1ccccc1NC(=O)c1ccc2c(c1)N(Cc1cccc(Cl)c1)C(=O)c1ccccc1S2(=O)=O as the compound, how does the Potency read?
A: inconclusive: 11.2 µM [inhibitor, partial curve]

Q: Which Potency does the source give for O=S(=O)(Nc1ccc2nc(-c3ccc(Br)o3)[nH]c2c1)c1ccccc1 here?
A: inactive

Q: For O=c1[nH]c(/C=C/c2ccccc2)c([N+](=O)[O-])c(=O)[nH]1, which Potency is on record?
A: inactive

Q: How did the Potency turn out when Cc1cccc(-c2ccc(NC(=O)C3CCN(CC4CC4)CC3)cc2)c1 was run?
A: inconclusive: 11.2 µM [inhibitor, partial curve]

Q: With CCN1C(=O)C(CC(=O)Nc2ccc(Br)cc2)N(CCCc2ccccc2)C1=S (centres undefined) as the compound, how does the Potency read?
A: inconclusive: 11.2 µM [inhibitor, partial curve]

From PubChem BioAssay AID485281 (National Center for Advancing Translational Sciences (NCATS), 2010)
